Results taken from US20230330254A1 (Regeneron Pharmaceuticals, Inc., priority 2022, published 2023).

Legend:
cynomolgus GLP1R = molecular target: T1, cynomolgus GLP1R (Macaca fascicularis, UniProt F8V479); test: Flow cytometry cell binding, HEK293/CRE-Luc/mfGLP1R (Example 18); details: Table 30
T1 construct: engineered to express full-length human GLP1R, cynomolgus GLP1R; expressed in transfected cells; host or cells: HEK293/CRE-Luc
Protocol: (§1) GLP1R agonist linker payloads were conjugated to anti-GLP1R antibodies via N-terminal heavy or light chain Glutamine (Q) tags. […] The cell surface binding of the anti-GLP1R ATDCs to human GLP1R (HEK293/CRE-Luc/hGLP1R), cynomolgus GLP1R (HEK293/CRE-Luc/mfGLP1R), and control cells lacking expression of GLP1R (HEK293/CRE-Luc) was assessed via flow cytometry. […] The last well in each row of the plate served as a blank control containing only secondary antibody and was plotted as a continuation of the 3-fold serial dilution. […] Samples were filtered through Pall 96 well plate PP/PE mesh filter system and collected in Costar 96 well plate. Samples were run on the iQue flow cytometer (Intellicyte) and results were analyzed using Forecyte analysis software (Intellicyte) to calculate the mean fluorescent intensity (MFI) after gating for live cells. EC50 values were determined using a four-parameter logistic equation over a 10-point dose response curve (GraphPad Prism). The signal to noise (S/N) was determined by taking the ratio of the highest MFI on the dose response curve to the MFI in the secondary alone wells.

HEK293/CRE-Luc cells [1] = test: Flow cytometry cell binding, HEK293/CRE-Luc control cells (Example 18); set-up: species or system human; details: Table 30, control cells lacking GLP1R
Protocol: GLP1R agonist linker payloads were conjugated to anti-GLP1R antibodies via N-terminal heavy or light chain Glutamine (Q) tags. Several resulting anti-GLP1R-GLP1R agonist antibody tethered drug conjugates (ATDCs) and their unconjugated parental antibodies were tested for cell-based binding activity. The cell surface binding of the anti-GLP1R ATDCs to human GLP1R (HEK293/CRE-Luc/hGLP1R), cynomolgus GLP1R (HEK293/CRE-Luc/mfGLP1R), and control cells lacking expression of GLP1R (HEK293/CRE-Luc) was assessed via flow cytometry. For the assay, 61,000-230,000 cells were suspended in PBS, w/2% FBS and 0.2% sodium azide (staining buffer) in 96 well V-bottom plates and incubated for 30 minutes at 4° C. with three-fold serial dilutions of the anti-GLP1R ATDCs, non-binding control ATDCs, or unconjugated anti-GLP1R antibodies. The last well in each row of the plate served as a blank control containing only secondary antibody and was plotted as a continuation of the 3-fold serial dilution. […] Cells were then washed once and stained with a cell viability dye (Live/dead Fixable Green Dead Cell Stain Kit for 488 nm excitation, Molecular Probes cat #L34970) at 1× in PBS for 20 minutes at 4° C. Cells were washed once in staining buffer, fixed for 20 minutes at 4° C. using a 50% solution of Cytofix (BD Biosciences, Cat #554655) diluted in PBS, and washed again in staining buffer. Samples were filtered through Pall 96 well plate PP/PE mesh filter system and collected in Costar 96 well plate. Samples were run on the iQue flow cytometer (Intellicyte) and results were analyzed using Forecyte analysis software (Intellicyte) to calculate the mean fluorescent intensity (MFI) after gating for live cells. EC50 values were determined using a four-parameter logistic equation over a 10-point dose response curve (GraphPad Prism). The signal to noise (S/N) was determined by taking the ratio of the highest MFI on the dose response curve to the MFI in the secondary alone wells.

human GLP1R [2] = molecular target: T2, human GLP1R (Homo sapiens, UniProt P43220); test: Flow cytometry cell binding, HEK293/CRE-Luc/hGLP1R (Example 18); set-up: engineered to express full-length human GLP1R, cynomolgus GLP1R; expressed in transfected cells; host or cells: HEK293/CRE-Luc; details: Table 30, experiments A, C, D
Protocol: as §1

HEK293/CRE-Luc cells [3] = test: Flow cytometry cell binding, parental HEK293/CRE-Luc (Example 24); set-up: species or system human; details: Table 39; parental cells lacking GLP1R; signal to noise
Protocol: ATL and mAb binding to cells was assessed by flow cytometry. Briefly, 95,000-540,000 cells were suspended in staining buffer (PBS+2% FBS+0.2% sodium azide) in 96-well, V-bottom plates (Axygen, #P-96-450V-C-S) and incubated for 30 minutes at 4° C. with serial dilutions of the anti-GLP1R ATLs, non-binding control ATL, or unconjugated antibodies. […] Cells were then washed once and stained with a cell viability dye (Live/dead Fixable Green Dead Cell Stain Kit for 488 nm excitation, Molecular Probes, #L34970) at 1× in PBS for 20 minutes at 4° C. Cells were washed once in staining buffer, fixed for 20 minutes at 4° C. using a 50% solution of Cytofix (BD Biosciences, #554655) diluted in PBS, and washed again in staining buffer. Samples were filtered through 96-well filter plate (Pall Laboratory, #8027) and collected in 96-well, U-bottom plate (Falcon, #351177). Samples were run on the iQue Screener PLUS cytometer (IntelliCyt) and results were analyzed using Forecyte analysis software (IntelliCyt) to calculate the geometric mean fluorescence intensity (MFI) after gating for live cells. […] EC50 values were determined using a four-parameter logistic equation over an 8- or 12-point dose response curve (GraphPad Prism), and the signal to noise (S/N) was determined by taking the ratio of the highest MFI on the dose response curve to the MFI in the secondary alone wells. […]

human GLP1R [4] = molecular target: T2, human GLP1R; test: b-arrestin 2 recruitment assay, PathHunter CHO/b-arrestin 2/hGLP1R cells; type: cell-based; details: Table 40, maximum signal relative to GLP-1
Protocol: The b-arrestin 2 recruitment assay was performed following manufacter's instructions (Eurofins DiscoverX, #93-0300E2CP0M), with minor modifications. […] Serial dilutions of free payload and LP were performed in 100% DMSO, followed by 1:100 dilution in assay media. Test articles were added to cells (1:5 dilution) with the last well in each serial dilution series serving as a blank control containing only assay media for antibodies and ATLs or assay media with 0.2% DMSO for payload and LP. After a 90-minute incubation at 37° C., PathHunter Detection Reagent (Eurofins DiscoverX, #93-0300E2CP0M) was added to the wells followed by a 1-hour incubation at room temperature. RLUs were measured on EnVision Plate Reader (Perkin Elmer).
(§2) EC50 values for luminescence assays were determined using a four-parameter logistic equation over a 12-point dose response curve (GraphPad Prism).

human GLP1R [5] = molecular target: T2, human GLP1R; test: CRE-Luc cAMP reporter assay, HEK293/CRE-Luc/hGLP1R (Example 24); type: cell-based; set-up: engineered to express full-length human GLP1R, cynomolgus GLP1R; expressed in transfected cells; host or cells: HEK293/CRE-Luc; details: Table 40; maximum signal relative to GLP-1
Text: To test the activity of GLP1R agonist payloads, GLP1R agonist linker-payloads (LPs), and anti-GLP1R antibody-tethered ligands (ATLs) of the invention, a cell-based cAMP responsive luciferase reporter assay was developed. To generate the assay cell line, the firefly luciferase gene was placed under the control of a cAMP response element (CRE) located upstream of a minimal promoter and transfected into HEK293 cells and referred to herein as HEK293/CRE-Luc cells. HEK293/CRE-Luc cells were then engineered to express full-length human GLP1R (HEK293/CRE-Luc/hGLP1R), cynomolgus GLP1R (HEK293/CRE-Luc/mfGLP1R), or mouse GLP1R (HEK293/CRE-Luc/mGLP1R).
Serial dilutions of free payload and linker payloads (LP) were performed in 100% DMSO (ATCC, #4-X-5), followed by 1:100 dilution in assay media. Test articles were added to cells (1:5 dilution) with the last well in each serial dilution series serving as a blank control containing only assay media for antibodies and ATLs or assay media with 0.2% DMSO for payloads and LPs. After a 5-hour incubation at 37° C., luciferase activity was determined by addition of ONE-Glo reagent (Promega, #E6130) followed by measurement of relative light units (RLUs) on an EnVision Plate Reader (Perkin Elmer).
as §2

T2 sequence (P43220 24-463): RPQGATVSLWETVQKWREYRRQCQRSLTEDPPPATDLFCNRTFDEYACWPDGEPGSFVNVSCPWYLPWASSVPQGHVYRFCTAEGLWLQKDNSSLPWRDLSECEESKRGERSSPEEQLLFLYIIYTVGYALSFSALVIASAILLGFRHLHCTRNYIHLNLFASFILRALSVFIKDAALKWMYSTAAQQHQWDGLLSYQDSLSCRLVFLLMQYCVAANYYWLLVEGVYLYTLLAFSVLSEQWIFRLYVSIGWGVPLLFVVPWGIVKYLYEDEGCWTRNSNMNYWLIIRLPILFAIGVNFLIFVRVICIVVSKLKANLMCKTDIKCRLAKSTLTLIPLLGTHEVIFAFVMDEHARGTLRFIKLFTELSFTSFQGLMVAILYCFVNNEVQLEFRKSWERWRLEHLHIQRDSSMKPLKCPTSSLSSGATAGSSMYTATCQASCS
T1 sequence (F8V479 24-463): as the sequence (P43220 24-463) above, with S112N, F120S, S202G, L205V, L237F, W241R, I249V counted along it

B1: REGN7988 unconjugated Ab (antibody)
heavy: QVQLVESGGGVVQPGRSLRLSCAASGFTFSGYGIHWVRQAPGKGLVWVAVIWYDGSFKYYADSVKGRFTISRDNSKNTLYLQMNSLRAEDTAVYYCARGDSSSSGRYYYYGMDVWGQGTTVTVSSASTKGPSVFPLAPCSRSTSESTAALGCLVKDYFPEPVTVSWNSGALTSGVHTFPAVLQSSGLYSLSSVVTVPSSSLGTKTYTCNVDHKPSNTKVDKRV[human IgG4 Fc with S228P (EU numbers) left out here]
light: LLQGSGDIQMTQSPSSLSASVGDRVTITCRASQGIRNDLGWYQQKPGTAPKRLIFAASSLQSGVPSRFSGSGSGTEFTLTISSLQPEDFATYYCLQHNNYPPTFGGGTKVEIKRTVAAPSVFIFPPSDEQLKSGTASVVCLLNNFYPREAKVQWKVDNALQSGNSQESVTEQDSKDSTYSLSSTLTLSKADYEKHKVYACEVTHQGLSSPVTKSFNRGEC
Cynomolgus GLP1R; flow cytometry cell binding, no unit printed in table (text reads values as M)
  EC50: 0.662 nM
Cynomolgus GLP1R; signal to noise
  HEK293/CRE-Luc/mfGLP1R Flow S/N: 467.2
HEK293/CRE-Luc cells [1]; no unit printed in table (text reads values as M)
  EC50: > 100 nM
HEK293/CRE-Luc cells [1]; signal to noise
  HEK293/CRE-Luc Flow S/N: 9.2
Human GLP1R [2]; flow cytometry cell binding, no unit printed in table (text b1840 reads values as M)
  EC50: 1.89 nM
Human GLP1R [2]; signal to noise
  HEK293/CRE-Luc/hGLP1R Flow S/N: 397.7

B2: REGN15869 ATL (conjugate)
heavy: [about 100 residues left out here]GLIAPRPMGFDYWGQGTLVTVSSASTKGPSVFPLAPCSRSTSESTAALGCLVKDYFPEPVTVSWNSGALTSGVHTFPAVLQSSGLYSLSSVVTVPSSSLGTKTYTCNVDHKPSNTKVDKRV[human IgG4 Fc with S228P (EU numbers) left out here]
light: LLQGSGDIQMTQSPSSVSASVGDRVTITCRASQGINSWLAWYQQKPGKAPKLLIYAASSLESGVPSRFSGSGSGTDFTLTISSLQPEDFATYYCHQADSFPYTFGQGTKLEIKRTVAAPSVFIFPPSDEQLKSGTASVVCLLNNFYPREAKVQWKVDNALQSGNSQESVTEQDSKDSTYSLSSTLTLSKADYEKHKVYACEVTHQGLSSPVTKSFNRGEC
HEK293/CRE-Luc cells [3]
  HEK293/CRE-Luc Flow S/N: 19.1
Human GLP1R [4]
  CHO/b-arrestin 2/hGLP1R Emax (% GLP-1): 110.9 % GLP-1
Human GLP1R [5]
  HEK293/CRE-Luc/hGLP1R Emax (% GLP-1): 96.2 % GLP-1
